About 2,200 (0.71%) of roughly 310,000 compounds showed an effect of 50% or more. Effects have a minus sign here. The list shows a part of the results.
Biological target: human ether-à-go-go-related gene (hERG) potassium channel (human, UniProt Q12809)
Assay: primary screen, population patch clamp on CHO cells stably expressing hERG

human ether-à-go-go-related gene (hERG) potassium channel, sequence (Q12809 whole entry, looked up): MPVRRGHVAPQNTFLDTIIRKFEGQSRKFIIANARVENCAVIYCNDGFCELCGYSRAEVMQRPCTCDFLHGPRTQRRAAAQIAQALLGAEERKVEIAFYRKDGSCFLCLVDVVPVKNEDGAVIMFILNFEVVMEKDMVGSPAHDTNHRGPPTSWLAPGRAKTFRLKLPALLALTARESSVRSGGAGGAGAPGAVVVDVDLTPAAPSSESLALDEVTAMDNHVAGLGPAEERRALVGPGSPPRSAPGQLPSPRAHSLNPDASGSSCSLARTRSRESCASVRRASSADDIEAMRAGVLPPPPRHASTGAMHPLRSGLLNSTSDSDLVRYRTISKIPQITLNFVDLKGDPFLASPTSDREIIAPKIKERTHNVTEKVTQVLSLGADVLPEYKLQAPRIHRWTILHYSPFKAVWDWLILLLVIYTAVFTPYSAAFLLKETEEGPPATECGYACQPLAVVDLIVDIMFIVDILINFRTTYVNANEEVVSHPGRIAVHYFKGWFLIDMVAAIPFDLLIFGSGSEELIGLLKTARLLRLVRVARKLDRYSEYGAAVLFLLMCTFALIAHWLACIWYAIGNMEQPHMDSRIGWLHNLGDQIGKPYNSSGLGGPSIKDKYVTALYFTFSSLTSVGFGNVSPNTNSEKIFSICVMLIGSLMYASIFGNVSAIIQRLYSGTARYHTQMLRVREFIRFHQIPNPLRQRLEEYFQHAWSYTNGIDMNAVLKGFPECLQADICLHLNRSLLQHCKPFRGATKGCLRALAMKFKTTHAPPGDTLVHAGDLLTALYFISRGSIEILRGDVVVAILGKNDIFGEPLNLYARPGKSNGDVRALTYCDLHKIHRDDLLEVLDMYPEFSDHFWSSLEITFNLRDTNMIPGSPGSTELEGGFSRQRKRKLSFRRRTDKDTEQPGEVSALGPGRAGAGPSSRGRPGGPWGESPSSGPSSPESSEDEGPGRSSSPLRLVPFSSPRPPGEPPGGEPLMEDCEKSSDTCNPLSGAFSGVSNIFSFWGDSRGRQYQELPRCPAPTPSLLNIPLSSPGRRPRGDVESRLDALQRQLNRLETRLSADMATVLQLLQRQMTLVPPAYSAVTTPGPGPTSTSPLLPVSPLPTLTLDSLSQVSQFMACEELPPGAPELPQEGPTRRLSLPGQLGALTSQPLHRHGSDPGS

First: CS(=O)(=O)N(CC(=O)Nc1ccccc1Br)Cc1ccccc1
Second: CCN(CC(=O)NCC(=O)Nc1cccc(C)c1C)Cc1ccccc1
The “hERG current change (%, negative = inhibition) at 1uM” value of the first is higher: 15.7% for the first, 4.42% for the second.

Going from `CCOC(=O)c1oc2c(CN3CCN(C)CC3)c(O)ccc2c(=O)c1-c1ccccc1OC` to `CCOc1ccc(N(CC(=O)N2CCN(c3ccccc3OC)CC2)S(=O)(=O)c2ccc(F)cc2)cc1`, the “hERG current change (%, negative = inhibition) at 1uM” value falls from 9.55% to -0.46%.

Compared with `COCCN(Cc1cc2cc(C)ccc2nc1Cl)C(=O)Nc1ccccc1OC`, `O=C(Nc1ccc2ccccc2c1)c1ccc(Cl)cc1Cl` is lower in “hERG current change (%, negative = inhibition) at 1uM” value: 15.8% for the first, 11.1% for the second.

Going from `O=C(O)C(=O)O.O=C(c1cccc(F)c1)N1CCN(Cc2ccc3c(c2)OCO3)CC1` to `O=C(CN1CCN(Cc2cccc(F)c2)CC1)NCc1ccccc1`, the “hERG current change (%, negative = inhibition) at 1uM” value falls from 14.1% to 10.3%.

Compared with `COc1ccc(C(=O)Oc2ccc(C(=S)N3CCOCC3)cc2)cc1`, `CN(C)c1ccc(/C=N/NC(=O)c2ccc(CN3CCOCC3)cc2)cc1Br` is lower in “hERG current change (%, negative = inhibition) at 1uM” value: 20% for the first, 3.95% for the second.

Compared with `Cn1c(=O)c2c([nH]c(=S)n2Cc2ccc(Cl)cc2)n(C)c1=O`, `Cc1ccc(NC(=O)Cn2cnc3c(=O)n(C)c(=O)n(C)c32)c(C)c1` is lower in “hERG current change (%, negative = inhibition) at 1uM” value: 14.6% for the first, 2.97% for the second.

Going from `COC(=O)C1(C)CCc2cc(OC)ccc2C1=O` (stereo not shown) to `COc1ccc(OC)c(CCNC(=O)Cn2sc3nc(C)cc(C)c3c2=O)c1`, the “hERG current change (%, negative = inhibition) at 1uM” value rises from 8.27% to 14.6%.

Compared with `COc1ccc(C(=O)Nc2ccc(-c3nnn(CC(=O)NCc4ccco4)n3)cc2)cc1`, `COc1ccc(CC(=O)Nc2cccc(-c3ccc4nnc(C)n4n3)c2)cc1` is higher in “hERG current change (%, negative = inhibition) at 1uM” value: -3.58% for the first, 0.298% for the second.

Compared with `Fc1ccc(CN2CCSCC2)cc1F`, `CCc1ccc2c(COC(=O)C3CSC4(C)CCC(=O)N34)cc(=O)oc2c1` (stereo not shown) is lower in “hERG current change (%, negative = inhibition) at 1uM” value: 1.87% for the first, -15% for the second.

Going from `Cc1ccsc1C(=O)N1CC=C(c2ccccc2)CC1` to `Cc1ccc2c(c1)NC(=O)CC(c1ccccc1)=N2`, the “hERG current change (%, negative = inhibition) at 1uM” value falls from 7.56% to -20.4%.

First: Cc1nc(SCC(=O)NCCc2ccccc2)c2c(=O)n(C)c(=O)n(C)c2n1
Second: Nc1nc(COC(=O)C2CC(=O)N(CCc3ccccc3)C2)nc(Nc2ccccc2)n1 (stereo not shown)
The “hERG current change (%, negative = inhibition) at 1uM” value of the first is higher: 12.4% for the first, -28.1% for the second.

Compared with `CC(=O)C1=C(O)C(=O)N(CCCn2ccnc2)C1c1ccc(C)cc1` (stereo not shown), `Cc1ccc(N2C(=O)c3ccccc3C2C(=O)c2ccc(C)c(C)c2O)cc1` (stereo not shown) is higher in “hERG current change (%, negative = inhibition) at 1uM” value: 5.04% for the first, 11.5% for the second.

Compared with `Cc1c(/C=N/NC(=O)CNc2ccccc2)c2ccccn2c1C(=O)c1ccccc1`, `O=C(Cc1ccccc1)Nc1ccc(NC(=O)c2cccnc2)cc1` is higher in “hERG current change (%, negative = inhibition) at 1uM” value: 2.51% for the first, 17.3% for the second.

Compared with `O=C1/C(=C\c2cccs2)N=C(c2cccs2)N1Nc1ccccc1`, `CC(OC(=O)c1cccs1)C(=O)Nc1nc(-c2ccccc2)cs1` (stereo not shown) is higher in “hERG current change (%, negative = inhibition) at 1uM” value: 13.4% for the first, 15.5% for the second.

Going from `CC1CC(C)CN(S(=O)(=O)c2cccc3nsnc23)C1` (stereo not shown) to `Cc1ccc(S(=O)(=O)N2CCN(C(C)CC(=O)O)CC2)cc1` (stereo not shown), the “hERG current change (%, negative = inhibition) at 1uM” value rises from 3.04% to 14.4%.

Going from `O=C1Nc2ccccc2C1=Nc1ccc(Br)cc1` to `O=C1c2ccccc2C(=O)N1c1ccc(Cl)cn1`, the “hERG current change (%, negative = inhibition) at 1uM” value falls from 8.47% to 2.04%.

First: Cc1ccc(OCC(=O)N2c3ccccc3NC(=O)C2(C)C)c([N+](=O)[O-])n1
Second: Cn1cc(Cl)c(C(=O)OCC(=O)Nc2ccccc2)n1
The “hERG current change (%, negative = inhibition) at 1uM” value of the first is lower: 9.36% for the first, 12.8% for the second.

First: CCCC(=O)Nc1cc(S(=O)(=O)N(CC)CC)ccc1Cl
Second: O=C(CCNC(=O)c1ccccc1Cl)Nc1ccncc1
The “hERG current change (%, negative = inhibition) at 1uM” value of the first is lower: 12% for the first, 14.2% for the second.

Going from `COc1ccccc1CN1CC(C(=O)NCc2nccn2C)CCC1=O` (stereo not shown) to `COc1ccc(CCNC(=O)CSc2ccsc2[N+](=O)[O-])c(OC)c1`, the “hERG current change (%, negative = inhibition) at 1uM” value falls from 16.4% to -1.65%.

First: Cc1ccccc1-c1n[nH]c(=S)n1/N=C/c1c(C)nn(-c2ccccc2)c1C
Second: COc1ccc(Oc2nnc(-c3ccccc3)cc2C#N)cc1
The “hERG current change (%, negative = inhibition) at 1uM” value of the first is higher: 5.29% for the first, 3.45% for the second.

First: Cn1c(SCC(=O)O)nnc1-c1ccc(NC(=O)c2ccc(Cl)c(Cl)c2)cc1
Second: O=C(Nc1ccc(OC(F)(F)F)cc1)c1ccc2c(c1)no[n+]2[O-]
The “hERG current change (%, negative = inhibition) at 1uM” value of the first is lower: 8.47% for the first, 8.74% for the second.

Compared with `COc1cc(NC(=O)COC(=O)/C=C/c2c(C)nn(C3CCS(=O)(=O)C3)c2Cl)cc(OC)c1OC` (stereo not shown), `COc1cc(OC)c(/C=N/NC(=O)Cn2nc([N+](=O)[O-])cc2C)c(OC)c1` is lower in “hERG current change (%, negative = inhibition) at 1uM” value: 12.3% for the first, 9.91% for the second.

First: Cc1ccc2c(c1)cc(C)c1nnc(SCC(=O)NCc3ccco3)n12
Second: Cc1nnc(N/N=C\c2ccc(-c3cccc(C(=O)O)c3)o2)n1N.Cl
The “hERG current change (%, negative = inhibition) at 1uM” value of the first is lower: 6.83% for the first, 13.8% for the second.

Compared with `O=C(c1cn(-c2ccccc2)nc1-c1ccc(Cl)cc1)N1CCOCC1`, `Nc1c(C(=O)c2ccccc2)sc2nsc(SCCN3CCOCC3)c12` is higher in “hERG current change (%, negative = inhibition) at 1uM” value: 14.5% for the first, 16.3% for the second.

Compared with `CCOC(=O)C1=C(N)OC2=C(C(=O)CC(C)(C)C2)C1c1cccnc1` (stereo not shown), `O=C(NCCNc1ccc(Cl)cc1[N+](=O)[O-])c1cccnc1` is higher in “hERG current change (%, negative = inhibition) at 1uM” value: -19.9% for the first, -8.2% for the second.

First: CCc1nnc(N/N=C\c2ccc(OC(C)=O)c(OC)c2)n1N.Cl
Second: Cc1cc(C)c(C)c(S(=O)(=O)Nc2ccccc2C(=O)NCCCN2CCOCC2)c1C
The “hERG current change (%, negative = inhibition) at 1uM” value of the first is higher: 11.1% for the first, -34.4% for the second.

Going from `NC(=O)c1cc[n+](CC2=C(C(=O)[O-])N3C(=O)[C@@H](NC(=O)C(c4ccccc4)S(=O)(=O)[O-])[C@H]3SC2)cc1.[Na+]` (stereo partly shown) to `c1ccc(N/N=C2\CCCc3ccccc32)nc1`, the “hERG current change (%, negative = inhibition) at 1uM” value falls from 13.2% to 7.04%.

`CC(C)CCn1c(N2CCOCC2)nc2c1c(=O)n(CC(N)=O)c(=O)n2C` was tested, and the “hERG current change (%, negative = inhibition) at 1uM” value was 16.2%.

Source: publication PMC4336329 (PLoS ONE, 2015)
